Data: the supplement of paper PMC3334620
Over roughly 33,000 sequences, “E-score (-0.5 to 0.5)” has its median near -0.035; the highest 2% begin near 0.35. Some of the results follow.

Biological target: T1, Pdr3 (UniProt P33200)
T1 sequence: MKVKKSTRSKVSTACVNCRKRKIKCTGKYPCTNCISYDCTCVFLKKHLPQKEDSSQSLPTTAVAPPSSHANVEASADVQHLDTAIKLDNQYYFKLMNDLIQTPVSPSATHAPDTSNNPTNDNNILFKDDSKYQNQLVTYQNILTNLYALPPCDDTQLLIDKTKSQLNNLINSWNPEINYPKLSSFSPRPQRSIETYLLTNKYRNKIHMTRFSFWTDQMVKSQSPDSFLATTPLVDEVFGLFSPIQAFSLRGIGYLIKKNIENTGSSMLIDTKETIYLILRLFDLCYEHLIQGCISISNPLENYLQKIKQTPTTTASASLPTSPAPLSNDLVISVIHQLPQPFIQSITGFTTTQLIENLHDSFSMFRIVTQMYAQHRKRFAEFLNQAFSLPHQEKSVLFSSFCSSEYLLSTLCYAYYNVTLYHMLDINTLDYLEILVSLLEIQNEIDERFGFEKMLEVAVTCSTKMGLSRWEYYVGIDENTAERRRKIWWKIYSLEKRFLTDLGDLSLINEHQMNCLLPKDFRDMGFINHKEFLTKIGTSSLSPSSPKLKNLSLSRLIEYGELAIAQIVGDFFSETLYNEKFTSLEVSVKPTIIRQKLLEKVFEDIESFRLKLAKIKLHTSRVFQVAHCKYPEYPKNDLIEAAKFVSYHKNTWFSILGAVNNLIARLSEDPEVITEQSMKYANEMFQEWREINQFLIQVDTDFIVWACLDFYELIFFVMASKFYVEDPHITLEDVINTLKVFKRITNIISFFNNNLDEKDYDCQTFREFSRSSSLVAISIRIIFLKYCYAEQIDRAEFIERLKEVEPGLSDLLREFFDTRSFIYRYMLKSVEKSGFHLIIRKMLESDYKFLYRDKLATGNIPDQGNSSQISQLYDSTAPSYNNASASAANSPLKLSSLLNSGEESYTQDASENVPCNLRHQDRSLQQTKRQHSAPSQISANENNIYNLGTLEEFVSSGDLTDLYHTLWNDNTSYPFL
Test: PBM E-score (8-mer binding enrichment) (E-score (-0.5 to 0.5)); higher = stronger / more preferred TF binding; most listed sequences are background and not binding sites
Conditions: protein concentration: 200 nM; construct: GST-full length
In short: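 PURExpress in vitro transcription/translation supplied GST-tagged yeast transcription factors, either full-length or DNA-binding domain. Applied at about 100-200 nM to universal all-10-mer Agilent arrays double-stranded by primer extension, the bound protein was detected with fluorescent anti-GST. E-scores, modified Wilcoxon-Mann-Whitney statistics, were given by the Universal PBM Analysis Suite to ungapped eight-base words pooled with their reverse complements after masliner normalisation.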

Sequence	PBM E-score
GGACTACA	-0.0255
GCTGATAA	0.0569
AACGTATA	-0.164
CGCATGAG	-0.164
ATTACAAT	-0.0726
ATTCGTCG	0.148
TGGTGTAA	-0.145
CACTCCCA	-0.165
AAACTACG	0.0869
AACTAAAA	0.00575
AGTCCGCA	0.203
CGTCCGTC	-0.0265
TCTTGTCA	-0.0406
CGATAATA	0.0612
TAAATTTA	0.158
AACGTCCG	0.254
GATCACTA	0.131
ATGGGTAC	-0.299
TAAAGCGA	0.0497
AACCATCT	-0.104
AGTTTAGG	-0.276
CACGATGC	-0.146

Sequence	PBM E-score
GAGCGGTA	0.0552
CTTCGTCC	-0.0469
ACAAAAGA	0.0611
CGGGTTGA	0.24
CCTGGAAA	0.0224
AAACGGCC	0.278
GTTCCCTA	-0.0497
ACTACGAA	-0.277
GCTACCTA	-0.0722
GTGATGCA	0.11
GTGGAGAA	-0.11
TACGCGTA	-0.0695
CCTTCGCA	-0.186
CCGGGGTC	0.327
ATCAAGGC	-0.104
ATGGCTGG	-0.105
ACATCCGT	0.216
CTCAGCAC	-0.0211
CACCAGCA	-0.2
ACGCAACA	-0.035
GATCACCA	0.0615
AGTGGCTC	-0.0868

Sequence	PBM E-score
CATCTGTA	-0.113
AAGAACTA	0.00668
AGGTACAG	-0.293
CACCAACA	-0.102
TCGAGTCA	-0.262
GATATTGA	0.117
TAGAAACA	-0.208
GAATTTAA	0.0296
GTCGCCAA	-0.138
TCACAACA	-0.157
ATCGCAGC	0.0141
GCTGTAAA	-0.32
ATACACAA	-0.147
AAACGGGG	0.186
CCGGCAGC	0.362
AGGCTCCG	0.306
CTACGCAG	-0.191
CGTCTGGC	0.146
AGGAAGGA	-0.363
AACCCTTA	-0.163
TACAGCAA	-0.0335
CGGGTTCC	0.414

Sequence	PBM E-score
AACTGAAC	0.0379
CCAGCTGA	-0.0391
CATAAAAC	0.0178
GGGGGAGA	-0.00585
ATTCGACA	-0.133
AGCCGCGG	0.485
AGGACGGC	-0.0743
GCTAGGCA	-0.0802
ACACCTTC	0.0728
CCGCCTGC	-0.041
CCACTCAA	-0.065
ATATGACA	0.0428
CTACCACA	-0.169
CATGGCGA	0.0227
ATGTTGGG	-0.0398
CGCCTTGC	-0.0202
TGACGTAA	-0.259
AGGATTTG	-0.138
CTCGTCAG	-0.152
CCGCTCTC	-0.0273
ACATGCCA	-0.0535
AATAATTC	0.172

Sequence	PBM E-score
ATCCCTGC	-0.0253
ACCCAGAA	0.00286
AAATTAGG	0.116
AGGACTAC	-0.244
AAGAGTCC	-0.0543
ATTTAGGA	-0.229
CAGGCACC	-0.221
GCCTCTGA	-0.223
ATAATGAA	0.00788
AGGAGATA	-0.182
GGGCCGTA	0.0929
ACGCGGAG	0.309
CGGTCCCC	0.0888
GACCAGAC	-0.247
ATAGCAGG	0.112
AACTCAGG	-0.175
CGCTGTAG	-0.00377
CGTCTTAG	-0.255
CTAGCCCA	-0.0911
AGTTCAGA	-0.0363
CGCTCACA	-0.072
AGGACCTG	-0.155
